Results: the supplement of paper PMC4166925
± gives the standard deviation of the averaged measurements. The full ranking holds about 33,000 sequences; the median of “E-score (dimensionless, -0.5 to 0.5)” is about -0.046, and the highest 2% start at about 0.36. This is one part of the list.

These sequences were tested on T1, SpTbr T-box DNA-binding domain (GST fusion) (assay: PBM E-score of 8-mer (E-score (dimensionless, -0.5 to 0.5)); Tbr is Tbrain of the sea star Patiria miniata (Pm) or the sea urchin Strongylocentrotus purpuratus (Sp); higher = stronger binding preference; most listed sequences are background and not binding sites). Settings: the construct has about 5 more residues each side.
T1 sequence: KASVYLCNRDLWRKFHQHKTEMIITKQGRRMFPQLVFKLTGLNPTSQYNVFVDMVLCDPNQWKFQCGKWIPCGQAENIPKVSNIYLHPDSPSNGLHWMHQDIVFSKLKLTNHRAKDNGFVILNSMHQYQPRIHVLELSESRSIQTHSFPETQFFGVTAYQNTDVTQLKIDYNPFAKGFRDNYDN
Summary of the method: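 Expression of GST-fused Tbr T-box DNA-binding domains, each holding the full T-box plus roughly five flanking residues, was carried out in BL21 E. coli at 20 °C, with purification by glutathione affinity chromatography. Universal Agilent arrays made double-stranded by primer extension were incubated with the protein at 200 nM in PBS (pH 7.5), then scanned and quantified. All ungapped 8-mers were scored from probe intensities, and each received an enrichment E-score from the Universal PBM Analysis Suite, averaged over duplicate arrays.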

Row | Sequence | PBM E-score of 8-mer
1 | AACAGCTG | 0.0403 ± 0.023
2 | AACTGCAC | -0.05739 ± 0.00026
3 | GCTGAAGA | 0.0463 ± 0.025
4 | CAGCTACC | 0.00277 ± 0.0031
5 | CAATCCGG | -0.196 ± 0.11
6 | ATTGCTCA | -0.124 ± 0.025
7 | ATTTGCTC | -0.284 ± 0.0053
8 | AGATTGTG | 0.142 ± 0.044
9 | AAGACAAA | -0.0111 ± 0.03
10 | CAGCGGAC | -0.107 ± 0.053
11 | TAAAGGTA | 0.0101 ± 0.069
12 | CTTTGATC | -0.228 ± 0.015
13 | CACTAAAG | 0.107 ± 0.035
14 | ATACCTCA | 0.073 ± 0.05
15 | ATTACAAC | 0.107 ± 0.062
16 | CTGGATTC | -0.152 ± 0.045
17 | ACTTCCTC | -0.118 ± 0.09
18 | CAGCCCTG | -0.283 ± 0.057
19 | AGCTGCCA | 0.111 ± 0.099
20 | CAAACTAC | -0.0974 ± 0.03
21 | GCTCCCAC | -0.0817 ± 0.077
22 | CGTTCCGC | -0.226 ± 0.053
23 | CGCAACAG | 0.0408 ± 0.041
24 | CCCACTTA | 0.08683 ± 0.00027
25 | CCAGATCG | -0.0268 ± 0.026

Row | Sequence | PBM E-score of 8-mer
26 | ATTTTCAA | -0.231 ± 0.028
27 | ACATAGAA | -0.0909 ± 0.069
28 | AATTTACG | 0.0254 ± 0.03
29 | ACCAGTCG | -0.0587 ± 0.076
30 | AAGTCGGC | -0.0769 ± 0.0057
31 | CAGAGAAA | 0.119 ± 0.0044
32 | ATCGTGTC | 0.173 ± 0.052
33 | GGTACGAA | 0.0997 ± 0.059
34 | AGGCGAAT | -0.205 ± 0.13
35 | GCTCACAC | 0.448 ± 0.0095
36 | GAGATGCA | -0.221 ± 0.028
37 | ATGCTGGG | -0.196 ± 0.073
38 | CAATCCCA | -0.0448 ± 0.046
39 | ATACATGG | -0.0733 ± 0.039
40 | CGCTTGAA | -0.24 ± 0.034
41 | ACGTGAGG | 0.196 ± 0.024
42 | ATTAATGA | -0.134 ± 0.058
43 | ATCAGAGG | -0.0774 ± 0.0049
44 | AAACAATC | -0.11 ± 0.0064
45 | AGGGGCGC | -0.00409 ± 0.022
46 | AAGGAGCC | 0.0708 ± 0.044
47 | AAACTTTC | 0.0486 ± 0.12
48 | ACAGGCGT | 0.301 ± 0.033
49 | ATCTTTAA | -0.0261 ± 0.074
50 | ACTTATAT | 0.0004 ± 0.014

Row | Sequence | PBM E-score of 8-mer
51 | AGGAGGAG | -0.0652 ± 0.07
52 | CTTTGATA | -0.221 ± 0.049
53 | CGGTGTTC | -0.0703 ± 0.07
54 | CCATGCTC | -0.0405 ± 0.029
55 | CTCTGTGC | -0.107 ± 0.059
56 | CAAAAGAA | -0.134 ± 0.087
57 | CAAGATTA | -0.105 ± 0.0015
58 | CTTGTCTC | 0.0999 ± 0.049
59 | AAAGCCCC | -0.2691 ± 0.001
60 | CAAAGCAG | -0.102 ± 0.032
61 | CGGTATCA | 0.0955 ± 0.017
62 | CCAACGGG | -0.0354 ± 0.0071
63 | GACGTCCC | -0.218 ± 0.012
64 | AGAACATG | -0.0968 ± 0.0091
65 | AGGTCGGA | -0.141 ± 0.0084
66 | TGCTTAAA | -0.173 ± 0.02
67 | GCCCTTCA | -0.196 ± 0.039
68 | CATGTATC | 0.0485 ± 0.0023
69 | TAAACCAA | -0.0254 ± 0.016
70 | ATTTACTC | -0.0963 ± 0.037
71 | AGCGTAAT | -0.0418 ± 0.029
72 | CGGCTGCC | -0.0159 ± 0.021
73 | AGGATGTG | 0.116 ± 0.074
74 | ACGGGCCG | -0.12 ± 0.11
75 | TCCAGTCA | -0.0542 ± 0.066

Row | Sequence | PBM E-score of 8-mer
76 | GATTTAGC | 0.00308 ± 0.088
77 | GCATGACA | 0.09 ± 0.029
78 | ATAGACAT | -0.313 ± 0.052
79 | CTTCGGCC | -0.157 ± 0.014
80 | GGAGACCC | -0.29 ± 0.027
81 | GATTGCCA | 0.132 ± 0.0054
82 | AACCAAAT | -0.101 ± 0.03
83 | CTGCGTTA | -0.0548 ± 0.086
84 | ATTATGAG | -0.0244 ± 0.034
85 | ATCCACAG | -0.0171 ± 0.029
86 | AGTAGGGG | -0.125 ± 0.01
87 | AGTCTTCA | 0.0409 ± 0.02
88 | AACGAGGC | -0.0658 ± 0.071
89 | AAAGTTGT | 0.1789 ± 0.00091
90 | GGCTGTGA | 0.274 ± 0.0031
91 | GAGCAACC | -0.144 ± 0.084
92 | ATTAGACG | -0.115 ± 0.03
93 | ATTGAATA | -0.0528 ± 0.065
94 | CGAACGGC | 0.0622 ± 0.0044
95 | CACTAGGG | -0.191 ± 0.07
96 | GGACACAC | 0.0866 ± 0.0081
97 | AGTACAAC | -0.0481 ± 0.064
98 | ACTCAGGG | -0.0222 ± 0.03
99 | CGAGCGCG | 0.179 ± 0.038
100 | CCTAGTTC | -0.0342 ± 0.022

Row | Sequence | PBM E-score of 8-mer
101 | CAATGCGG | -0.122 ± 0.075
102 | AAGTATAG | -0.141 ± 0.066
103 | ACTCGTCG | -0.0181 ± 0.081
104 | TATTTTCA | 0.0115 ± 0.1
105 | AGCTACCT | -0.202 ± 0.074
106 | TCTGGGAA | -0.16 ± 0.04
107 | ATTGCGAG | 0.183 ± 0.0077
108 | AATCGACA | 0.192 ± 0.036
109 | GCCACCAA | 0.168 ± 0.011
110 | CACACCAA | 0.38 ± 0.017
111 | ATGTCATA | -0.202 ± 0.0053
112 | GTTCTAGA | -0.188 ± 0.042
113 | CTGCTCCA | -0.261 ± 0.033
114 | AGCTTTTG | -0.248 ± 0.092
115 | TCGTCGAA | 0.136 ± 0.029
116 | GGTCTCCA | -0.178 ± 0.031
117 | GAGTCTTA | -0.0602 ± 0.044
118 | AATTACGA | -0.074 ± 0.11
119 | CCTTGACG | 0.119 ± 0.013
120 | AGAGCGTG | 0.191 ± 0.021
121 | CCATGACC | -0.197 ± 0.032
122 | AGCCGCGC | 0.156 ± 0.015
123 | CACAAGGG | 0.0548 ± 0.046
124 | AGGTGGCC | 0.075 ± 0.0048
125 | AGTGGGAC | 0.0381 ± 0.061

Row | Sequence | PBM E-score of 8-mer
126 | ATAAGTAG | 0.0492 ± 0.11
127 | ACACAGGT | 0.0709 ± 0.053
128 | CTTATCTA | -0.176 ± 0.036
129 | ATGCGAAA | 0.08 ± 0.092
130 | CCTTCCAG | -0.129 ± 0.041
131 | GGCCCGCA | -0.148 ± 0.051
132 | AGATGCCA | -0.0466 ± 0.0036
133 | AATGAAGA | -0.0655 ± 0.0055
134 | TATGATCA | -0.136 ± 0.022
135 | AGAGGTAA | -0.158 ± 0.039
136 | GATCCGAA | -0.149 ± 0.027
137 | ATGGAACA | -0.149 ± 0.023
138 | AGGGAAAC | -0.168 ± 0.048
139 | CCCTTAGC | 0.0731 ± 0.092
140 | CGTTAAAC | 0.141 ± 0.061
141 | CACTAAAA | 0.111 ± 0.017
142 | GGAAAAGA | -0.182 ± 0.073
143 | ATTACGGA | -0.146 ± 0.017
144 | AGGATCTA | -0.253 ± 0.084
145 | GGCCGCAC | 0.209 ± 0.043
146 | GATGTAAA | -0.184 ± 0.0032
147 | TCGTAACA | 0.236 ± 0.033
148 | AATCCCGT | -0.191 ± 0.024
149 | GCCGCGCA | 0.026 ± 0.02
150 | ACTCAGGA | -0.0747 ± 0.031

Row | Sequence | PBM E-score of 8-mer
151 | AAGATCGG | -0.0617 ± 0.039
152 | GCGGTAAC | 0.154 ± 0.058
153 | AAAACGTG | 0.225 ± 0.0046
154 | GGCCGAAA | -0.148 ± 0.044
155 | CTCCTTGC | -0.173 ± 0.0052
156 | AACGAAGA | -0.078 ± 0.058
157 | CCTATGGC | 0.0599 ± 0.083
158 | AAACGGTC | -0.114 ± 0.041
159 | AGAATGGG | -0.154 ± 0.054
160 | GGCAGTGA | 0.0363 ± 0.075
161 | AAAAGTTA | 0.0517 ± 0.032
162 | ACTTTCGA | 0.0223 ± 0.045
163 | GCGTACGC | -0.126 ± 0.033
164 | AATCGGCA | -0.0412 ± 0.086
165 | CAAAAGAG | 0.00863 ± 0.022
166 | CTCACTGA | 0.111 ± 0.044
167 | GGGCAGAC | -0.254 ± 0.013
168 | CACCGGCC | -0.0438 ± 0.011
169 | CGATGGAC | -0.125 ± 0.002
170 | AATTCAAC | -0.101 ± 0.031
171 | CTCCGGAA | -0.123 ± 0.049
172 | GACTACGC | -0.0782 ± 0.051
